Data from PubChem BioAssay AID2147 (National Center for Advancing Translational Sciences (NCATS), 2009).
Where “and” joins values, the source holds several entries; their conditions need not be identical. Identical values can stand only once. Out of some 230,000 compounds screened, about 3,600 (1.6%) were called active. This list was built around the results that the source calls inconclusive (neither active nor inactive); the mix of calls is not that of the screen. Calls come from the whole dose curve; as a rule, active = well fitted inhibition curve with a large enough effect (not every such curve was filed as active); inconclusive = small, poorly fitted or top-dose-only effect, or another doubt; inactive = no such curve, though single readings can be large or run the other way. Potencies of inconclusive entries are doubtful fits and often do not repeat.

Each molecule was assayed against Lysine-specific demethylase 4E (Homo sapiens) (UniProt B2RXH2) (assay: qHTS Assay for Inhibitors of Human Jumonji Domain Containing 2E (JMJD2E)). Details: JMJD2E catalytic domain, FDH-coupled NADH fluorescence (FDH is formaldehyde dehydrogenase); series mostly up to 57.1 µM.
Chain of UniProt B2RXH2 (B2RXH2 whole entry, looked up, the tested form may be a part): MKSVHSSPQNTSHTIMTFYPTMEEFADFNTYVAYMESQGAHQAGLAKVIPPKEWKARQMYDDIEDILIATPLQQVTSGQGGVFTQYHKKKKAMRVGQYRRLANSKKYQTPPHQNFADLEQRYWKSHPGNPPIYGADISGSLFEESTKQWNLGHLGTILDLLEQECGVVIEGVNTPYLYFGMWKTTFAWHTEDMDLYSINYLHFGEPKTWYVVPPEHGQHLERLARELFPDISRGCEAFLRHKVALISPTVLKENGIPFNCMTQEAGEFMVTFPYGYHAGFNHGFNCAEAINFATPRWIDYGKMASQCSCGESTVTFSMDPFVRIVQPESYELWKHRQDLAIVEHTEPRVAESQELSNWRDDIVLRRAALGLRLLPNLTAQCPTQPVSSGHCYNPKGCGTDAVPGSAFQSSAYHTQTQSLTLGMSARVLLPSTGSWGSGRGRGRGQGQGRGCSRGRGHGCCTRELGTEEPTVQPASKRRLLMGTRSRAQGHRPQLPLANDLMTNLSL
Note: nearly all actives have a fitted effect of over 50% in size.
Potency is the fitted concentration of half-maximal effect; tags give direction and shape of the fitted curve.

Structure (SMILES) | Potency
C=CC(=O)N=c1sc2ccccc2n1-c1ccccc1 | inactive
CCCCN1C(=O)CC(C(=O)OCC)=C1C | inconclusive: 39.8 µM [inhibitor, single point]
O=C(N/N=C/c1ccc(-c2ccc([N+](=O)[O-])cc2)o1)C(O)c1ccccc1 (centres undefined) | inactive
CCCn1c(CCC(=O)O)ccc1-c1ccc(OC)cc1 | inconclusive: 28.2 µM [inhibitor, partial curve]
Cc1ccc(C)c(OCCOCCN2CC(C)OC(C)C2)c1C (centres undefined) | inconclusive: 35.5 µM [inhibitor, single point]
CCN(CC)Cc1cc2[nH]c3c4ccc(Cl)cc4ncc3c2cc1OC | inconclusive: 35.5 µM [inhibitor, single point]
Cc1[nH]c(=S)[nH]c(=O)c1CCCO | inconclusive: 39.8 µM [inhibitor, single point]
O=C(NNc1ccc([N+](=O)[O-])cc1)C1CC1c1ccccc1 (centres undefined) | inactive
Nc1ccc(C(=O)NCC(=O)O)cc1 | inactive and inconclusive: 31.6 µM [inhibitor, single point]
COc1ccc(-c2nc(C(N)=O)c3[nH]c(=O)n(-c4cccc(C)c4)c3n2)c(OC)c1 | inconclusive: 31.6 µM [inhibitor, single point]
c1cnc2nc(-c3ccc4c(c3)OCO4)cn2c1 | inconclusive: 28.2 µM [inhibitor, partial curve]
O=C(O)c1cc2c(ccc3ccccc32)[nH]1 | inconclusive: 35.5 µM [inhibitor, partial curve]
N#C/C(=C(\O)c1ccco1)c1ccccn1 | inconclusive: 39.8 µM [inhibitor, single point]
NC(=O)c1ccc(NC(=O)c2cccc(Oc3ccccc3)c2)cc1 | inconclusive: 31.6 µM [inhibitor, single point]
CCOC(=O)COc1ccc2cc(C(=O)OCC)c(=O)oc2c1 | inconclusive: 28.2 µM [inhibitor, partial curve]
Cc1ccc(C)n1-c1ccc(C(=O)NN)s1 | inconclusive: 39.8 µM [inhibitor, single point]
O=c1c2cn[nH]c2[nH]c(=S)n1-c1ccccc1Cl | inconclusive: 39.8 µM [inhibitor, single point]
O=c1cc(CN2CCN(c3ccccc3)CC2)c2c(ccc3ccccc32)o1 | inconclusive: 39.8 µM [inhibitor, single point]
COC(=O)CCC(=O)OC1(C)C(=O)C2=CN(CC3CC3)C(c3ccc(OC)cc3)=CC2=C(Br)C1=O (centres undefined) | active: 12.6 µM
Cn1nnnc1SCC1=C(C(=O)O)N2C(=O)[C@@H](NC(=O)[C@H](O)c3ccccc3)[C@H]2SC1 | inactive
Cc1ccc(OCC(=O)O/N=C(\N)c2ccccn2)cc1 | inconclusive: 31.6 µM [inhibitor, single point]
CCn1c2c(c(=N)c3ccccc31)CCC2 | inconclusive: 22.4 µM [inhibitor, partial curve]
Cc1c2n(c3ccccc13)CC/C2=N\O | inconclusive: 39.8 µM [inhibitor, single point]

Structure (SMILES) | Potency
CCOC(=O)CCc1c(C)nc2cc(-c3ccc(F)cc3)[nH]n2c1=O | inconclusive: 17.8 µM [inhibitor, partial curve]
Cc1nc(Nc2ccc3c(c2)OCCO3)c2nnn(Cc3ccccc3Cl)c2n1 | inconclusive: 35.5 µM [inhibitor, single point]
Cc1ccc(C)c2[nH]c(=O)c(C(c3nnnn3C3CCCC3)N3CCOCC3)cc12 (centres undefined) | inconclusive: 31.6 µM [inhibitor, single point]
COc1ccc(NC(=O)CSc2nc(O)cc(=O)n2-c2ccccc2OC)cc1 | inactive
COc1ccc(OC)c(-n2c(SCC(N)=O)nnc2-c2c[nH]c3ccccc23)c1 | inactive
Oc1ccc(/C=N/Nc2nc(-c3cccnc3)nc3ccccc23)c(O)c1 | active: 22.4 µM
COc1cccc(C2C(C#N)=C(N)OC3=C2C(=O)CC(c2ccco2)C3)c1OCc1ccc(F)cc1 (centres undefined) | inactive
COc1cccc(-c2nnc3sc(-c4ccco4)nn23)c1 | inconclusive: 15.8 µM [inhibitor, partial curve]
Cc1cc(=O)nc2c3ccccc3n(C(C)C(=O)Nc3c(F)c(F)c(F)c(F)c3F)n12 (centres undefined) | inconclusive: 31.6 µM [inhibitor, partial curve]
CCC(c1nnnn1Cc1ccc(F)cc1)N(CCCO)Cc1cc2cc3c(cc2[nH]c1=O)OCO3 (centres undefined) | inconclusive: 31.6 µM [inhibitor, partial curve]
C/C(CCc1oc2ccc(Br)cc2c1-c1ccc(C)o1)=N/O | inactive
O=C(COC(=O)c1ccccc1-c1nc2ccccc2s1)Nc1ccccc1C(F)(F)F | inconclusive: 39.8 µM [inhibitor, single point]
O=C(Nc1ccc(Cl)cc1)[C@@H]1[C@@H]2C(=O)N(c3ccc4ccccc4c3)C(=O)[C@@H]2[C@H]2C=CC=NN21 | inconclusive: 35.5 µM [inhibitor, single point]
CCNc1ccc(S(=O)(=O)N(C)C)cc1NCC(=O)Nc1ccccc1F | inactive
Fc1ccc(-c2nc3n(c2-c2ccncc2)CCS3)cc1 | inconclusive: 31.6 µM [inhibitor, single point]
Cc1nn(-c2ccccn2)c2c1C(c1ccncc1)C1=C(CC(C)(C)CC1=O)N2 (centres undefined) | inconclusive: 25.1 µM [inhibitor, partial curve]
O=c1oc2cc(Oc3ccc(C(F)(F)F)cc3[N+](=O)[O-])ccc2c2c1CCC2 | inconclusive: 35.5 µM [inhibitor, single point]
COc1ccc(CCNc2nc(-c3sc(N)nc3C)cs2)cc1OC | inactive
O=C(C1=C[C@@H](c2coc3ccccc3c2=O)C[C@@H](OCCCCO)O1)N1CCOCC1 | inconclusive: 39.8 µM [inhibitor, single point]
Cc1ccc(NC(=O)C2CCN(S(=O)(=O)c3c(C)noc3/C=C/c3ccco3)CC2)nc1 | inconclusive: 39.8 µM [inhibitor, single point]
CCCC(=O)O[C@]1(C(=O)COC(C)=O)CC[C@H]2[C@@H]3C[C@H](F)C4=CC(=O)C=C[C@]4(C)[C@@]3(F)[C@@H](O)C[C@@]21C | inactive
CCOc1ccc(N2CSC3=C(C#N)C(c4ccco4)CC(=O)N3C2)cc1 (centres undefined) | inconclusive: 25.1 µM [inhibitor, partial curve]
O=C(NCc1ccco1)c1cc2ccc(O)cc2oc1=O | inconclusive: 7.08 µM [inhibitor, partial curve]

Structure (SMILES) | Potency
CC(C)C[C@@H](CC(=O)N[C@H](CC(=O)N[C@@H]1CCCC[C@H]1C(=O)N[C@H](CC(=O)N[C@@H](CCC(=O)O)CC(=O)O)Cc1c[nH]c2ccccc12)C(C)C)NC(=O)[C@@H]1CCCC[C@H]1N | inactive
O=C(CC1SC(=NCCc2ccccc2)N(/N=C/c2cccs2)C1=O)Nc1ccc(Cl)cc1 (centres undefined) | inactive
CN(C)c1ccc(/C=C/C(=O)c2cccnc2)cc1 | inactive
CCc1noc(C)c1C(=O)Nc1sc(C(=O)N(C)C)c(C)c1C(=O)OC | inactive
O=C(Nc1ccccc1OC(F)F)c1oc2ccccc2c1COc1ccccc1 | inconclusive: 28.2 µM [inhibitor, partial curve]
O=C(O)CCCC(=O)NCc1c(Cl)cccc1Sc1ccc(Cl)cc1 | inactive
COc1ccc(-c2nc3oc4cc(OC)ccc4c(=O)c3c(=O)n2Cc2ccco2)cc1 | inconclusive: 31.6 µM [inhibitor, single point]
CC(C)[C@H](Nc1nc(-c2ccccc2)nc2c1oc1ccccc12)C(=O)O | inactive
Oc1cccc(Nc2nc(O)c(/C=C3\C=Nc4ccccc43)s2)c1 | inactive
COc1ccc2c(c1)c1c3n2CCN(C)C3=NCC1 | inconclusive: 39.8 µM [inhibitor, single point]
COc1ccc(NC2C=CS(=O)(=O)C2)cc1 (centres undefined) | inactive
O=C(O)COc1ccccc1/C=N/NC(=O)c1cccc(S(=O)(=O)N2CCOCC2)c1 | inconclusive: 39.8 µM [inhibitor, single point]
COc1ccc2nc(N/C(N)=N/C(=S)Nc3ccccc3)nc(C)c2c1 | inconclusive: 31.6 µM [inhibitor, single point]
COc1cccc(Oc2ccc3nnc(C(F)(F)F)n3n2)c1 | inactive
O=C(CC(=O)N/N=C\c1ccc(F)cc1)NCCc1ccccc1 | inconclusive: 3.98 µM [inhibitor, full curve, poor fit]
O=C(CCN1C(=O)C2C3C=CC(C3)C2C1=O)N1CCCCC1 (centres undefined) | inactive
Cc1cc(C)c(C)c(S(=O)(=O)N[C@@H](C)C(=O)OC(C)C(=O)NC(N)=O)c1C (some centres undefined) | inactive
Cc1ccc(OCC(=O)NNc2c3ccccc3nc3ccccc23)cc1 | inconclusive: 25.1 µM [inhibitor, partial curve]
C/C(=N\Nc1cccc2cccnc12)c1ccc(N)cc1 | inconclusive: 22.4 µM [inhibitor, partial curve, poor fit]
Cc1cccc(C)c1NC(=O)COC(=O)c1ccc2[nH]c3c(c2c1)CCCC3 | inconclusive: 28.2 µM [inhibitor, partial curve]
O=C(Nc1nsc(-c2ccccc2)n1)c1ccncc1 | inconclusive: 39.8 µM [inhibitor, single point]
O=C1NC2c3ccccc3C(=O)N2c2c1cnn2-c1ccccc1 (centres undefined) | inactive
Cc1ccc2nc(NCCC(=O)O)nc(-c3ccccc3)c2c1 | inconclusive: 28.2 µM [inhibitor, partial curve]
